These results are taken from paper PMC4336329 (PLoS ONE, 2015).

About 2,200 (0.71%) of roughly 310,000 compounds showed an effect of 50% or more. The effect is printed as a negative number. This is one part of the list.

human ether-à-go-go-related gene (hERG) potassium channel, sequence (Q12809 whole entry, looked up): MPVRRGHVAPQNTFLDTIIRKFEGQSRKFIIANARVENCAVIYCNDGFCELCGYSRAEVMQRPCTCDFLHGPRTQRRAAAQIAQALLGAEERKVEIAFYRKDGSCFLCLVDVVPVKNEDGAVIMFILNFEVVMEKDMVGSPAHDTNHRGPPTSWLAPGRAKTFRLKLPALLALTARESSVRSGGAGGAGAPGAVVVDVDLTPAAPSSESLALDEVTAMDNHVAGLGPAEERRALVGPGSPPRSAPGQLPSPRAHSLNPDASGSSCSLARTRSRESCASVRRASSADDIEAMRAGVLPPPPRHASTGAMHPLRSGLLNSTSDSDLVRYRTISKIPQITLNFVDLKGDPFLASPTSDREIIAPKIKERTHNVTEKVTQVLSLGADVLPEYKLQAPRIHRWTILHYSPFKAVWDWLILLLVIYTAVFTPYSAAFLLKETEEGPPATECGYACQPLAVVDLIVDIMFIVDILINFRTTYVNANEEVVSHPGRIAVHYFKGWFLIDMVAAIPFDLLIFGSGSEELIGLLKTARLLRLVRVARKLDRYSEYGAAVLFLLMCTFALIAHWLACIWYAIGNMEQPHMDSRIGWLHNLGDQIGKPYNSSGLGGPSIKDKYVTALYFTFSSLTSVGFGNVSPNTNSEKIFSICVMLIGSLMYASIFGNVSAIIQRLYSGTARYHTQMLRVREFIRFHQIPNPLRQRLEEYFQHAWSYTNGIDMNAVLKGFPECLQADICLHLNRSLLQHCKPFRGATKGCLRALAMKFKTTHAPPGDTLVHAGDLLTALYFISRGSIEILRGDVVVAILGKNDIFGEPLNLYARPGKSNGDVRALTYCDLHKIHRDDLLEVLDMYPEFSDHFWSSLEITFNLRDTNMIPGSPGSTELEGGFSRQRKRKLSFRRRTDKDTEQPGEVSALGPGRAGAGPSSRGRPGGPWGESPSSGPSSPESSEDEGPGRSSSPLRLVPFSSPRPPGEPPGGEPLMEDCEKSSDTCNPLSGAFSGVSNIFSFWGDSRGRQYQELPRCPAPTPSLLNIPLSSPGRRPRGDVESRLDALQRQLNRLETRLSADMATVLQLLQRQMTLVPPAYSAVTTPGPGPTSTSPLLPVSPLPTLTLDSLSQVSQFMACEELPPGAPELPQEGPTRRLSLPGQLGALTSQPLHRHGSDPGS

This assay addresses human ether-à-go-go-related gene (hERG) potassium channel (human, UniProt Q12809). Kind of assay: primary screen, population patch clamp on CHO cells stably expressing hERG.
In the case of `Cc1ccc(NC(=O)CC(C)CC(=O)NCc2ccccc2)cc1Cl` (centres unmarked), the “hERG current change (%, negative = inhibition) at 1uM” value is reported as 9.95%.

For the compound `O=C(Nc1ccnn1C1CCN(C/C=C/c2ccccc2)CC1)c1ccccc1`, the “hERG current change (%, negative = inhibition) at 1uM” value is -64.4%.

For the compound `CSc1nnc(CNS(=O)(=O)c2ccc(F)cc2)n1C`, the “hERG current change (%, negative = inhibition) at 1uM” value is reported as 16.4%.

Take `Cc1ccnc(NC(=O)CCC(=O)N(CC(=O)NCCc2ccccc2)c2ccccc2F)c1`: the “hERG current change (%, negative = inhibition) at 1uM” value amounted to 16.6%.

Turning to `CCCCCCCCCC(=O)N[C@H](CN1CCOCC1)[C@H](O)c1ccccc1.Cl`, the “hERG current change (%, negative = inhibition) at 1uM” value is on record as 6.51%.

On to `C=CCSc1nnc(NC(=O)c2ccc(NC(C)=O)cc2)s1`, for which the “hERG current change (%, negative = inhibition) at 1uM” value was 11.7%.

With `CC(NC(=O)c1ccc(Br)o1)C1CC2CCC1C2` (centres unmarked), the “hERG current change (%, negative = inhibition) at 1uM” value is 11%.

Turning to `Nc1nonc1-c1nc2ccccc2n1Cc1ccc(F)cc1`, the “hERG current change (%, negative = inhibition) at 1uM” value was -0.308%.

As to `COc1ccc(N2CCN(C(=O)c3cccn4c(=O)c5ccccc5nc34)CC2)cc1`, the “hERG current change (%, negative = inhibition) at 1uM” value was -5.47%.

`Cc1ccccc1N1CCN(CCCOc2ccc3c(C)cc(=O)oc3c2)CC1`: the “hERG current change (%, negative = inhibition) at 1uM” value was -56.2%.

Regarding `COc1ccc(-c2csc(Nc3ncccn3)n2)cc1C`, the “hERG current change (%, negative = inhibition) at 1uM” value is 13%.

`CCc1ccc(NC(=S)NCC2CCCN2CC)cc1` (centres unmarked): the “hERG current change (%, negative = inhibition) at 1uM” value is on record as 1.35%.

In the case of `COCCN1CC(=O)N(c2cccc(C)c2C)C(c2ccc(Cl)cc2)C1=O` (centres unmarked), the “hERG current change (%, negative = inhibition) at 1uM” value was 3.01%.

As to `Cc1ccc(C)c(NCCC#N)c1`, the “hERG current change (%, negative = inhibition) at 1uM” value was 11.4%.

For `O=C(CCc1nc2ccccc2c(=O)[nH]1)NCCN1C(=O)S/C(=C\c2ccc(Cl)cc2Cl)C1=O`, the “hERG current change (%, negative = inhibition) at 1uM” value is listed as 13.9%.

Consider `Cc1cccc(C)c1OC(=O)Cc1ccccc1`, for which the “hERG current change (%, negative = inhibition) at 1uM” value stood at 12.6%.

As for `C=CCN1c2ccccc2[C@]23C[C@@H](C(=O)OC)N=C2NC(C(=O)OC)=C(C(=O)OC)[C@H]13`, the “hERG current change (%, negative = inhibition) at 1uM” value is reported as 1.34%.

`CCOC(=O)N/N=C\c1cccc(OC)c1OC/C=C/c1ccccc1`: the “hERG current change (%, negative = inhibition) at 1uM” value was 1.24%.

In the case of `COC(=O)c1ccc(NC(=O)CSc2nc3ccc(N4C(=O)C5C6C=CC(C6)C5C4=O)cc3s2)cc1` (centres unmarked), the “hERG current change (%, negative = inhibition) at 1uM” value was determined as 10.4%.

For `COc1cc(OC)cc(-c2cc3nc(C)c(CCC(=O)NC(C)CCc4ccco4)c(C)n3n2)c1` (centres unmarked), the “hERG current change (%, negative = inhibition) at 1uM” value is listed as -11.2%.

Turning to `COc1ccc(-n2ncc3c(=O)n(CC(=O)N4CCCc5ccccc54)cnc32)cc1`, the “hERG current change (%, negative = inhibition) at 1uM” value came out at 3.45%.

As for `CN=C(Nc1cc(C)nn1-c1ccccc1)c1ccc(F)cc1`, the “hERG current change (%, negative = inhibition) at 1uM” value is -4.19%.

Regarding `CCN1C(=O)C(CC(=O)Nc2cccc(C(C)=O)c2)S/C1=N\c1ccccn1` (centres unmarked), the “hERG current change (%, negative = inhibition) at 1uM” value is on record as 18.6%.

On to `Cn1c(SCc2cccc([N+](=O)[O-])c2)nc2c(c1=O)SCC2`, for which the “hERG current change (%, negative = inhibition) at 1uM” value is on record as 3.35%.

For `CC(C)CNC(=O)CC(=O)N/N=C/c1ccc(Br)cc1`, the “hERG current change (%, negative = inhibition) at 1uM” value was found to be 11.7%.

On to `CN(c1ccc(C(=O)N2CCOCC2)cc1)S(=O)(=O)c1ccc(Cl)cc1`, for which the “hERG current change (%, negative = inhibition) at 1uM” value is recorded as -3.14%.

Turning to `CCn1cc(C(=O)Nc2ccccc2)c(=O)c2ccc(C)nc21`, the “hERG current change (%, negative = inhibition) at 1uM” value was determined as 15.8%.

Regarding `O=C(NCc1ccccn1)c1cc2cc(Br)ccc2oc1=O`, the “hERG current change (%, negative = inhibition) at 1uM” value is recorded as 8.75%.

Turning to `Cn1c(Cn2c(C(F)(F)F)nc3ccccc32)nc2ccccc21`, the “hERG current change (%, negative = inhibition) at 1uM” value is listed as -5.06%.

As to `CCCCC/C(=N\NC(=O)CCC(=O)NCc1ccccc1)c1ccccc1`, the “hERG current change (%, negative = inhibition) at 1uM” value stood at 8.86%.

Consider `COc1ccc(N2C(=O)C3C(c4ccc(C(=O)O)cc4)NC(Cc4ccccc4)(C(=O)O)C3C2=O)c([N+](=O)[O-])c1` (centres unmarked), for which the “hERG current change (%, negative = inhibition) at 1uM” value stood at 3.69%.

Take `Cc1cc(=O)[nH]c(SCC(=O)NCc2ccc3c(c2)OCO3)n1`: the “hERG current change (%, negative = inhibition) at 1uM” value is 16.2%.

With `COc1cc(S(=O)(=O)NC2CCCCC2)c(C)cc1C`, the “hERG current change (%, negative = inhibition) at 1uM” value stood at 2.42%.

As for `COc1ccc2c(c1)c(C(=O)O)c(C)n2-c1ccccc1`, the “hERG current change (%, negative = inhibition) at 1uM” value turned out to be 9.06%.

`CCOc1ccc(-n2c(SCC(N)=O)nnc2-c2cccnc2)cc1`: the “hERG current change (%, negative = inhibition) at 1uM” value was -3.26%.

Regarding `O=C(Nc1nnc(C2CCCCC2)s1)C1CC(=O)N(c2ccc(F)cc2)C1` (centres unmarked), the “hERG current change (%, negative = inhibition) at 1uM” value is on record as 9.09%.

For the compound `O=C(O)c1cc(NC(=O)c2ccc3c(c2)C(=O)N(Cc2ccccc2)C3=O)cc(C(=O)O)c1`, the “hERG current change (%, negative = inhibition) at 1uM” value is listed as 11.7%.

As for `O=C(CSc1nnc2scc(-c3ccccc3)n12)NCC1CCCO1` (centres unmarked), the “hERG current change (%, negative = inhibition) at 1uM” value is given as 8.22%.

Consider `CC(C)c1ccc(N(CC(=O)NCc2ccc(F)cc2)C(=O)c2csnn2)cc1`, for which the “hERG current change (%, negative = inhibition) at 1uM” value amounted to 3.63%.

Take `O=c1[nH]c2ccsc2c(=O)n1-c1ccc(F)cc1`: the “hERG current change (%, negative = inhibition) at 1uM” value was found to be 15.3%.

Consider `CCOc1ccc(/C=N/NC(=O)C(OC)c2ccccc2)cc1` (centres unmarked), for which the “hERG current change (%, negative = inhibition) at 1uM” value came to 10.2%.

Regarding `Cc1ccc(-c2cc(C(=O)Nc3nccs3)c3ccccc3n2)o1`, the “hERG current change (%, negative = inhibition) at 1uM” value is listed as 9.83%.

As for `O=C(Nc1ncnc2sc3c(c12)CCCCC3)c1ccc(F)cc1`, the “hERG current change (%, negative = inhibition) at 1uM” value was found to be 14.2%.

In the case of `COc1ccc(-c2cc(C(F)(F)F)nc(N3CCCCCC3)n2)cc1`, the “hERG current change (%, negative = inhibition) at 1uM” value came to 7.55%.
